Measurements reported in PubChem BioAssay AID1347120 (National Center for Advancing Translational Sciences (NCATS), 2019).
About 930 (0.24%) of roughly 390,000 compounds were called active. Inconclusive means that the source gave no clear call. Such entries were picked first, then a sample of the others. Calls come from the whole dose curve; as a rule, active = well fitted activation curve with a large enough effect; inconclusive = small, poorly fitted or top-dose-only effect; inactive = no such curve, though single readings can be large or run the other way. A potency beside an inconclusive call is a rough fit, not a confirmed value.

Assay: qHTS for Suppressors of FUS Proteinopathy: Primary screen using FUS-linked yeast assay; note: nearly all actives have a fitted effect of over 55% in size
Conditions: S. cerevisiae FUS-expressing, OD600, 24 h; Potency: growth rescue; series mostly up to 76.6 µM
Outline: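 Absorbance at 600 nm, taken 24hr after compound addition, measured rescue of FUS-yeast growth at 30C. Induction used 2% galactose with seeding at OD 0.005. Controls: CP55940 from 92uM final, DMSO only.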
Potency is the fitted concentration of half-maximal effect; tags give direction and shape of the fitted curve.

SMILES	Potency
CCCCCCC(C)(C)c1ccc([C@@H]2C[C@H](O)CC[C@H]2CCCO)c(O)c1	inconclusive: 12.6 µM [activator, partial curve, poor fit]
Fc1cccc(-c2ccc3c(c2)CN(c2cccc(Cl)c2)Cc2cnnn2-3)c1	inconclusive: 20 µM [activator, partial curve, poor fit]
Cc1ccccc1-n1c(/C=C/c2ccccc2F)nc2ccccc2c1=O	inactive
COC(=O)C1=C(c2ccc3ccccc3c2)C[C@@H]2CC[C@H]1N2C(=O)NCc1ccc(F)cc1	inconclusive: 20 µM [activator, single point]
CN1C(=O)N(C)C(=O)C2(Cc3cc(NC(=O)c4ccccc4)ccc3N3CCCC32)C1=O (stereo not given)	inconclusive: 31.6 µM [activator, partial curve, poor fit]
O=[N+]([O-])c1ccc(Cl)c([N+](=O)[O-])c1	inactive
COC(=O)C1=C(c2ccc(Cl)c(C(F)(F)F)c2)C[C@@H]2CC[C@H]1N2C(=O)N1CCC(O)(c2ccc(Cl)cc2)CC1	inconclusive: 11.2 µM [activator, full curve]
Cc1cccc(C)c1-n1nnnc1C(c1cccs1)N1CCC2(CC1)C(=O)NCN2c1ccccc1 (stereo not given)	inconclusive: 15.8 µM [activator, partial curve, poor fit]
CC(C)C[C@H]1C(=O)N2CCC[C@H]2[C@]2(O)O[C@](NC(=O)[C@@H]3C=C4c5cccc6[nH]cc(c56)C[C@H]4N(C)C3)(C(C)C)C(=O)N12	inconclusive: 22.4 µM [activator, single point]
COc1ccc(C(c2nnnn2-c2ccc(OC)cc2)N2CCC(n3c(=O)[nH]c4ccccc43)CC2)cc1 (stereo not given)	inconclusive: 25.1 µM [activator, partial curve, poor fit]
O=C1NC(=O)C2(Cc3ccccc3N3CCCC32)C(=O)N1Cc1ccccc1 (stereo not given)	inconclusive: 28.2 µM [activator, partial curve]
CC(=O)O[C@@]12CO[C@@H]1C[C@@H](O)[C@@]1(C)C(=O)[C@H](O)C3=C(C)[C@@H](OC(=O)[C@H](O)[C@@H](NC(=O)c4ccccc4)c4ccccc4)C[C@@](O)([C@@H](OC(=O)c4ccccc4)C12)C3(C)C (stereo not given in full)	inconclusive: 17.8 µM [activator, partial curve, poor fit]
CCOC(=O)c1[nH]c2ccc(OC)cc2c1C(SCC(=O)O)c1ccc(C(F)(F)F)cc1 (stereo not given)	inconclusive: 50.1 µM [activator, single point]
O=C(CN1C(=O)[C@@H](Cc2ccccc2)N=C(c2ccccc2)c2ccccc21)NC1CCCCC1	inactive
CC(=O)c1ccc2c(c1)C1C(Cl)C(Sc3ccccc3[N+](=O)[O-])CC1C(c1ccccc1)N2 (stereo not given)	active: 39.8 µM
CC1=CC2/C=C(\C)CCC(O)C(O)/C=C/C(=O)C23C(=O)NC(CC(C)C)C3C1C (stereo not given)	inactive
O=c1[nH]c(=O)n(-c2ccccc2)c(O)c1/C=C1/C(c2ccccc2)=Nc2ccccc21	inconclusive: 50.1 µM [activator, single point]
COC(=O)C1=C(c2ccc(-c3ccccc3)c(F)c2)C[C@@H]2CC[C@H]1N2C(=O)NC(C)C	inconclusive: 28.2 µM [activator, single point]
O=C1NCN(c2ccccc2)C12CCN(C(c1cc3ccccc3o1)c1nnnn1C1CCCC1)CC2 (stereo not given)	inconclusive: 12.6 µM [activator, partial curve]
COC(=O)C1=C(c2cccc(OCc3ccccc3)c2)C[C@@H]2CC[C@H]1N2C(=O)NCc1ccc(Br)cc1	inconclusive: 6.31 µM [activator, full curve]
COc1ccc(-c2cc(-c3ccccc3)[n+](C)c(-c3ccccc3)c2)cc1	inactive
Cc1ccc(N2C(=O)NC(=O)/C(=C\c3cc(C)n(-c4sc5c(c4C#N)CCCC5)c3C)C2=O)cc1	inconclusive: 39.8 µM [activator, partial curve, poor fit]
COc1ccc(OC)c(CCNCc2c(C(=O)O)c(C)n(Cc3ccc(F)cc3Cl)c2C)c1	inactive
O=C1NC(=O)C(=Cc2ccc(Oc3ccc([N+](=O)[O-])cc3)cc2)C(=O)N1	inactive
CCOC(=O)[C@]12Cc3ccccc3[C@H]1N(Cc1ccccc1)C(=O)c1cc(OC)ccc12	inconclusive: 50.1 µM [activator, single point]
COc1ccc(-n2nnnc2C(CCc2ccccc2)N2CCC(n3c(=O)[nH]c4ccccc43)CC2)cc1 (stereo not given)	inconclusive: 17.8 µM [activator, partial curve, poor fit]
O=c1[nH]c2ccccc2n1C1CCN(C(c2cc3ccccc3o2)c2nnnn2Cc2ccccc2)CC1 (stereo not given)	active: 8.91 µM
O=C(CNC(=O)OCc1ccccc1)NC(Cc1ccccc1)P(=O)(Oc1ccccc1)Oc1ccccc1 (stereo not given)	inconclusive: 15.8 µM [activator, partial curve, poor fit]

SMILES	Potency
CCCCCn1c(NC(=O)c2ccco2)c(C(=O)OCC)c2nc3ccccc3nc21	inactive
CCOC(=O)[C@]12Cc3cc(OC)ccc3[C@H]1N(C(C)C)C(=O)c1cc(OC)ccc12	inconclusive: 7.94 µM [activator, partial curve]
COC(=O)c1ccc(NC(=O)CSc2nc3ccc(N4C(=O)C5C6C=CC(C6)C5C4=O)cc3s2)cc1 (stereo not given)	inconclusive: 12.6 µM [activator, partial curve, poor fit]
COc1cccc(C(c2nnnn2Cc2ccccc2)N2CCC(n3c(=O)[nH]c4ccccc43)CC2)c1OC (stereo not given)	inconclusive: 39.8 µM [activator, single point]
CN1C(=O)NC(=O)[C@]2(Cc3ccccc3N3CCN(c4ccccc4)CC32)C1=O (stereo not given in full)	inconclusive: 17.8 µM [activator, partial curve, poor fit]
Cc1cccc(N2C(=O)NC(=O)/C(=C/c3cc4c(cc3[N+](=O)[O-])OCO4)C2=O)c1	inconclusive: 20 µM [activator, partial curve]
COc1ccc(C2=NCC(=O)N(CC(=O)NCc3ccco3)c3sc4c(c32)CCCC4)cc1	inconclusive: 1.78 µM [activator, full curve, poor fit]
CCOC(=O)c1c(N)n(Cc2ccco2)c2nc3ccccc3nc12	inconclusive: 22.4 µM [activator, partial curve]
N#CCCn1cc(C(=O)Nc2ccccc2Br)c(-c2ccc([N+](=O)[O-])cc2)n1	inconclusive: 12.6 µM [activator, partial curve]
CC1=NN(c2ccccc2)C(=O)C1/C=C1/C(=O)NC(=O)N(c2cc(C)cc(C)c2)C1=O (stereo not given)	inactive
O=C(c1cn(Cc2ccccc2)c2ccccc12)C1CC1	inactive
COc1ccccc1N1CCN(Cc2ccc3c(c2)OCO3)CC1	inactive
COC(=O)C1=C(c2ccc(F)cc2F)C[C@@H]2CC[C@H]1N2C(=O)NCc1ccc(C(F)(F)F)cc1	inconclusive: 22.4 µM [activator, single point]
O=C1NC(=O)[C@]2(Cc3ccccc3N3CCN(c4ccccc4)CC32)C(=O)N1c1ccccc1 (stereo not given in full)	inconclusive: 15.8 µM [activator, partial curve, poor fit]
COC(=O)C1=C(c2ccc(F)cc2OCc2ccccc2)C[C@@H]2CC[C@H]1N2C(=O)NCc1ccc2[nH]ccc2c1	inconclusive: 39.8 µM [activator, single point]
CC12CC[C@H]3[C@@H](CCC4(O)C[C@H](O)CCC34/C=N/NC(=O)c3ccccc3O)C1(O)CCC2C1=CC(=O)OC1 (stereo not given in full)	inconclusive: 39.8 µM [activator, single point]
O=[N+]([O-])/C=C1\NCCN1Cc1ccc(Cl)nc1	inactive
COC(=O)C1=C(c2ccc3ccccc3c2)C[C@@H]2CC[C@H]1N2C(=O)N1CCCC1	inactive
COC(=O)C1=C(c2ccc(Cl)c(C(F)(F)F)c2)C[C@@H]2CC[C@H]1N2C(=O)N1CCC(C)CC1	inconclusive: 12.6 µM [activator, partial curve, poor fit]
O=C1CC(N2CC=C(c3ccc(F)cc3)CC2)C(=O)N1c1ccc(F)cc1 (stereo not given)	inconclusive: 31.6 µM [activator, partial curve, poor fit]
CCCc1nnc(NC(=O)CCC(=O)N2CCN(CCOC(c3ccccc3)c3ccccc3)CC2)s1	inconclusive: 3.55 µM [activator, partial curve, poor fit]
COC(=O)C1=C(c2cccc(OCc3ccccc3)c2)C[C@@H]2CC[C@H]1N2C(=O)NCc1ccc(C(C)(C)C)cc1	inconclusive: 15.8 µM [activator, partial curve]
COC(=O)C1=C(c2cccc(OCc3ccccc3)c2)C[C@@H]2CC[C@H]1N2C(=O)NCc1ccccc1	inconclusive: 31.6 µM [activator, partial curve]
C[N+]12CCC(CC1)C(C(O)(c1ccccc1)c1cccs1)C2 (stereo not given)	inactive
O=C(c1ccco1)c1cn(Cc2ccccc2)c2ccccc12	inactive
CC(=O)O[C@@]12CO[C@@H]1C[C@H](OC1OCC(O)C(O)C1O)[C@@]1(C)C(=O)[C@H](O)C3=C(C)[C@@H](OC(=O)[C@H](O)[C@@H](NC(=O)c4ccccc4)c4ccccc4)C[C@@](O)([C@@H](OC(=O)c4ccccc4)C12)C3(C)C (stereo not given in full)	active: 10 µM
COc1ccc(-n2nnnc2C(c2ccnc3ccccc23)N2CCC(n3c(=O)[nH]c4ccccc43)CC2)cc1 (stereo not given)	inconclusive: 31.6 µM [activator, partial curve, poor fit]
